A collection of fitness landscapes (doi:10.1016/j.celrep.2020.107928)
In all, about 81,000 sequences were measured (“one-hybrid fitness for binding NBS DNA”: median about -0.1, highest 2% from about 0.36 on). Some of the results follow.

B1: Caulobacter ParB omega fusion; a variant is named by its letters at X, in order, B8GW30 (parent)
chain: MESVVVGEPGMSEGRRGLGRGLSALLGEVDAAPAQAPGEQLGGSREAPIEILQRNPDQPRRTFREEDLEDLSNSIREKGVLQPILVRPSPDTAGEYQIVAGERAWRAAQRAGLKTVPIMVRELDDLAVLEIGIIENVQRADLNVLEEALSYKVLMEKFERTQENIAQTIGKSXSHVANXMRLLXLPDEVQSYLVSGELTAXHARAIAAAADPVALAKQIIEGGLSVRETEALARKAPNLSAGKSKGGRPPRVKDTDTQALESDLSSVLGLDVSIDHRGSTGTLTITYATLEQLDDLCNRLTRGI

Variants of: B1
Test: one-hybrid fitness for binding NBS DNA (the Noc-binding site; scaled: cognate 1, non-cognate 0); higher = stronger binding
Conditions: with NBS DNA site
Method in brief: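 The reporter was HIS3, with the binding site 19 bp from the promoter, in E. coli USO used for bacterial one-hybrid selection of Caulobacter ParB libraries with four specificity codons randomised. Growth was on M9 lacking histidine, with 0.1 mM IPTG and 5 mM 3-AT, for 48 hours at 37°C. Illumina sequencing covered plasmids before and after selection; three replicate libraries were pooled and variants with under 10 reads dropped. A fitness score is the log change in variant-to-wild-type read ratio, rescaled to the cognate and non-cognate references.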

one-hybrid fitness for binding NBS DNA, ≤ 0.2:
YSMR
GFLT
GQNG
VFWT
LMSS
ALSL
LGRG
NQMS
KKWT
KKKV
FNGE
LRTT
IFRR
LCLE
RQKE
DSLM
EYTV
PETW
IPYW
RFTF
DSQD
VKCF
ETHC
NYDL
SKLS
HRTW
NPYM
AVGT
VKLY
QTMF
PSTL
GSLE
PYKW
VDQR
NYKW
TSEC
PLDP
TYGG
TMGV
AVSS
LQDA
HDPW
NRIS
ALMA
HYAT
EDGG
TTEE
YQCG
CHAY
FHVY
LHSV
KNTH
DVPE
FAGQ
AVKP
PTFI
WMAQ
MDFK
AHLM
QGAC
EGFG
AQNV
TMVL
KKTS
RYKE
QEKE
LQQS
QATP
NCYL
GADT
IFPE
ANYS
LDAL
QVRG
AMNH
RGHW
EMFG
DLSA
WRWT
RMPG
QWPA
GTYG
VGVT
EKMM
HVYC
HPKS
HSAW
FAKD
LKAA
CALA
NRND
MPRL
SCFR
HPGW
HSNL
HKSR
LARN
